Sequences and labels used below:
B1: LINE1-full (parent)
chain: UACGUAGGUGGUUUUCCCCUGAUAGUGCUAAGGGGGCCUGGAAGUUUGGACUGGGCAGAGCUCAACACAGCGUGGCAAAGUGGCUGUGGCUAGACUGCCUCUCUGGAUUCCUCGUCACUCAGCAGGGCAUCUCUGAGAGAAAUGCC

The source gives no read counts; variants with many changes may rest on few reads.

In the data set the parent is B1. Description: self-cleavage, relative activity (ratio to wild type); higher = more cleavage; in vitro, sequencing; the parent is a self-cleaving ribozyme.
In the case of C17A A30U A129G A138U, the self-cleavage worked out at 0.24.
The same measure for A43G A67G U115C: 1.84; for A30U A64G U104A: 0.15; for U1A A79G U134G: 1.31.
As for A22U U26G U100C A129U, the self-cleavage is 1.09.
The same measure for G88A A117G A141U: 0.07.
In the case of U52A U96A A136G it was 0.1; in that of U46C U108C U109A U115C, 0; in that of U9C U45C A121U, 2.22.
The same measure for U39A U46C G72A U73C U130C: 1.89; for U1C U9A A42G U45G: 0.63; for U29C U52A U85C A124G: 0.15.
On to A42G U46C C95U, for which the self-cleavage is 0.72.
Consider A65U A77U A124G, for which the self-cleavage was found to be 0.17.
In the case of U23C U73G U134C it was 0.32; in that of U14A A42G A78G, 0.68.
The same measure for A43C A79G U130C: 1.07; for A69G U73C C84U A129G A142G: 0; for U47G A77U C128U: 1.35.
Consider A107G U115C A121U, for which the self-cleavage came out at 1.84.
As for U5C A79G G97A A142G, the self-cleavage was 0.22.
Take A22U C63U A124G: the self-cleavage was found to be 0.19.
The same measure for A24G G89A U115G: 0.
U13C U20C G27A: the self-cleavage turned out to be 0.49.
In the case of U62C C90A U132C it was 0.02.
In the case of U12G A30G A69U U73A it was 0; in that of U13C A59U U104C, 1.65; in that of A42U U115A C145U, 1.05.
The same measure for U47A A69G A94G U109A: 0.17; for U9C U14C U26C: 0.61; for U9C U20C U39A U62C A65U A121C: 0.27.
For U15G A43G A65G A78G U96A U132C, the self-cleavage turned out to be 0.
As for U13A A94G A141G, the self-cleavage is 0.31.
Consider U81G A94G U112A, for which the self-cleavage stood at 0.56.
For the variant U14C U20C A22G, the self-cleavage stood at 0.37.
The same measure for U26C U46C U52A: 1.72; for A50G U87C U108A A121U: 0.
On to U14C C71U A117G, for which the self-cleavage was 0.92.
In the case of U20C U45C A57U C63U U134A A140G it was 0.06.
The same measure for U20C A107U A142G: 1.52.
In the case of U13A G34A G144A it was 1.03; in that of A57C U109C A117G, 0.
In the case of A43U U46A U62A U109C U143A, the self-cleavage was found to be 0.05.
For the variant U12C U104C A107G, the self-cleavage was 2.16.
The same measure for U12C U26C U45C: 0.88; for A77U U96G A138G: 0.08.
In the case of A24U A50G U62C U91A C116A it was 0.12; in that of U14C U26G U91C G114A A124G, 0.84; in that of A6G U45C C120A, 1.63.
The same measure for U5G G83U G114A: 0.44; for U9C U46C G125A: 1.27.
Take G55A U62G A136G: the self-cleavage was found to be 0.
In the case of U46A A64G U119C A121U A140G it was 0.42; in that of U29C A77G C118U U119A, 2.41.
In the case of U12G A69U U102C C113U it was 0.2; in that of C16U U39C C51U U130A, 0.53.
As for C56U U96A U102C, the self-cleavage was determined as 0.04.
In the case of A59G A77U A92G it was 0.07; in that of U39C U91A U134A, 0.44.
As for U12G U62C A69U U85C U100C C120U, the self-cleavage was determined as 0.51.
Take A78U U87C A121U: the self-cleavage stood at 0.35.
The same measure for A79U U115C C123G: 1.53; for U13C A57G A138U: 0.67; for U9A U46C C95A: 0.1.
In the case of U14C A69C U81A A129U A136U it was 0; in that of G33A A42G A65G G93U U130C, 0.03.
As to U39C A77G A94U, the self-cleavage was determined as 0.95.
As to U39A A42G U52A A136G, the self-cleavage came out at 1.6.
In the case of A59U A94G A138G it was 2.34.
For U52A U73A U132C, the self-cleavage was found to be 2.1.
Consider U15A A64C U73C C131U, for which the self-cleavage worked out at 0.22.
As for A2G U47C U81A, the self-cleavage turned out to be 1.39.
In the case of U39C U102C U119C it was 3.
In the case of U5A U100A A138G it was 0.24; in that of U13A C28A A69G A142G, 0.38; in that of U62G A78G U112C, 0.
Turning to A6U A24U A59G A79G A117C, the self-cleavage was found to be 0.97.
The same measure for U5A U14C A64U U132G: 0.63; for C16U C38A U45C A136G U143A: 0.69; for U96C G127A A142G: 0.04.
In the case of A78G U102C U104C C113A U143C it was 2.18.
A24G U39C U46A A129G A142U: the self-cleavage worked out at 0.61.
In the case of C3A G8A A59G it was 0.08.
The same measure for U13C A59G G83C U96C: 0.11; for G32U A64G U102C: 0.07; for A92G G93A U96A U104A A107G: 0.09.
In the case of U39C A64U U91C it was 0.17; in that of U26A U119C A121U A141G, 1.3.
With U12G G55U U62A, the self-cleavage is 0.05.
In the case of U26A U85A U112C U115C U130C it was 0; in that of U52A A107U U108C, 1.52; in that of A2G A42G A77G U108G C113U U130A, 1.72.
For the variant U12A A64U A142G, the self-cleavage is 0.56.
In the case of A6G A69G U73C U115A it was 0.
The same measure for U47C A65G A129G: 0; for U5C A77G U119A: 1.41.
The same measure for U13C U73A A78U A107U U109C A117G U119C: 0.46; for A57U U96C U104C A124G: 0.18; for U1C A117U U132C: 0.98.
U62C A79G G125U: the self-cleavage was 0.
The same measure for A6U A67U U108C C113U: 0.26.
In the case of U62A A65C U130G, the self-cleavage was found to be 0.04.
In the case of U108A U134A A141G it was 1.69.
In the case of A22G A31C U104C C111U it was 0.85; in that of U20A A67G G72A U96C U134G, 0.04; in that of U46A U62A U109C, 0.06.
In the case of U62A U85A A117U U134A, the self-cleavage amounted to 0.03.
With A77U C90U A124G U134A, the self-cleavage worked out at 0.03.
The same measure for A30G U96A U119A: 0.15.
In the case of A78G U115C U132C it was 0.92; in that of U5C A64G C123U, 0.09; in that of U5G U96G C128U, 0.42.
Take U14G A94U A141G: the self-cleavage worked out at 0.7.
In the case of U23A A64G U115C it was 0.45.
The same measure for U12C A31G A77U: 0.74; for C56U U87A U96A: 0.04.
The same measure for A67G G106A U119C: 0.65; for U15A G33U G83U U130C: 0.85; for U29C G60C U73A: 0.
For U46A U47A U143C, the self-cleavage stood at 1.27.
Take U9G A22G C71U: the self-cleavage was 0.89.
As for G35A U47A A59U A77G, the self-cleavage came to 1.06.
The same measure for U5A U39A U45C A78G U96C: 0.
The same measure for U14C U46C G54A C116A U134A: 0.92; for U9C A121G A136G: 2.24; for A94G A138G A142G: 0.43.
On to U20C C37U U45C U87A U102C A136U, for which the self-cleavage is 0.04.
The same measure for U46C A64C U91A U130C A140G: 0; for C123U C128U U134C: 1.57.
The same measure for G72A G89A U130C: 0; for U15C A50U U96C: 0.08; for A69G U87A U108C: 0.03.
In the case of A64U U73A U130C U143C it was 0.7; in that of A50G C111U U130C U143A, 0.99.
U15C U87C A107G A129U U134A: the self-cleavage was 0.
In the case of C19G U108C A121G it was 1.23.
The same measure for A42G U81C U87A U115A: 0.28; for U5C A50U U96C G114A: 0.25.
In the case of U13C A92G U132A it was 0.05; in that of U9A U104A U119C U130C, 2.19.
In the case of U12C U47C A50G, the self-cleavage was 1.91.
The same measure for U5C U9C U47C U62G A138G: 0; for A42G A94G U104A A107U A138U: 0.59; for A107C U134C G144A: 2.86.
For the variant A22G U130A A141G, the self-cleavage turned out to be 1.61.
The same measure for G72A A94G U104G: 0.17; for U52A U112C U134C: 0.79.
The same measure for U9C U13C G33A: 1.04.
In the case of U13C U115A A141G it was 1.48.
For A30U U104A A138C, the self-cleavage came out at 1.39.
In the case of A2G U12G U87A U132C it was 0.39; in that of U20C G25A G106C U119C U143C, 1.27.
In the case of C3U A31U U73C, the self-cleavage amounted to 0.53.
As for U20C U29A G55A C123U, the self-cleavage is 0.21.
The same measure for U14C A43G A142G: 0.72; for U5C U46C A124G: 0.67.
In the case of U62C G80C A136G A140G it was 0.06; in that of A92U U102C U109A A138U A141G, 0.58; in that of U5C U20G U52A A67U A69U, 0.
In the case of C37U U45G U73A U85C C99U it was 0.01; in that of C19U U29A U91C U132A, 0.12; in that of G54A U85A C145G, 0.03.
As for U13C A31U U39A, the self-cleavage is 0.76.
In the case of U46C U134C A142G U143A it was 2.08; in that of U39A A42G A50G G72A, 0.14.
The same measure for G32A A78U A121U: 1.88; for C38U U45G U102C A140G: 0.9.
